# Reference: PubChem BioAssay AID588795 (National Center for Advancing Translational Sciences (NCATS), 2011)
# Hit rate of the full screen: of about 390,000 compounds, about 1,400 (0.36%) were called active. Inconclusive results, whose numbers are uncertain, are shown with a selection of clear calls. The call rests on the fitted dose curve; in most records, active means well fitted inhibition curve with a large enough effect; inconclusive means small, poorly fitted or top-dose-only effect; inactive means no such curve, though single readings can be large or run the other way. A potency beside an inconclusive call is a rough fit, not a confirmed value.
# Molecular target: Flap endonuclease 1 (Homo sapiens) (UniProt P39748)
# Experiment: qHTS Assay for the Inhibitors of Human Flap endonuclease 1 (FEN1). Further: nearly all actives have a fitted effect of over 65% in size.
# Conditions: Recombinant FEN1 flap cleavage, fluorescence, 15 min; series mostly up to 114 µM; activity change, negative = inhibition: at the top concentration
# In short: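 Recombinant FEN1 (10 nM) was preincubated with pin-transferred compounds for 15 min at room temperature, then flap DNA substrate (50 nM final) was added. Plates were read at 0 and 15 min, and normalized concentration–response data were fitted to a four-parameter Hill equation.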
# On the % scale 0 is the no-effect control and ±100 the full control effect; potency means the concentration at half of the fitted maximal effect; tags describe the fitted curve by direction and shape.
# Sequence of UniProt P39748 (P39748 whole entry, looked up): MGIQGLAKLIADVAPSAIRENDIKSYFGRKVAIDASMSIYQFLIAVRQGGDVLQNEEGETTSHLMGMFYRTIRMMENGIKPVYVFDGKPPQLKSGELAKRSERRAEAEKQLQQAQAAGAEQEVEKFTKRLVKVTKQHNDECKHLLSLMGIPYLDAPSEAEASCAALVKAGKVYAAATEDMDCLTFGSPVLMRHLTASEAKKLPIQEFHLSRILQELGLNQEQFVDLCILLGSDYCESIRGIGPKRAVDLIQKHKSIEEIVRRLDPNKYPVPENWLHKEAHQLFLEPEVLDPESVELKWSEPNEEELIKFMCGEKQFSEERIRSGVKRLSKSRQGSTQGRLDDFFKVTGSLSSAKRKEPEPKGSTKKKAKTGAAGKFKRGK
Compound,"activity change, negative = inhibition",Potency
O=C(Nc1scc(-c2ccc(F)cc2)c1C(=O)O)c1ccco1,inactive: 13.8%,–
O=C(N/N=C/C(Br)=C/c1ccccc1)c1ccc([N+](=O)[O-])cc1,–,"inconclusive: 39.8 µM [inhibitor, partial curve, poor fit]"
Nc1c(S(=O)(=O)c2ccccc2)c2nc3ccccc3nc2n1Cc1ccco1,–,"inconclusive: 56.2 µM [inhibitor, partial curve, poor fit]"
CC1=CC(=C(C#N)C#N)C=C(C)N1CCN1CCN(C(=O)Nc2ccc(Cl)c(Cl)c2)CC1,–,"inconclusive: 100 µM [inhibitor, partial curve, poor fit]"
CN(C)c1ccc(-c2nc3ccccn3c2Nc2ccc3c(c2)OCCO3)cc1,inactive: -14.6%,–
COc1ccccc1/C=C/C=c1\sc2nc(=O)c(Cc3ccccc3)nn2c1=O,–,active: 79.4 µM
COc1ccc(CCNC(=S)Nc2ccc(C(C)C)cc2)cc1,–,"inconclusive: 11.2 µM [inhibitor, partial curve, poor fit]"
O=C(CSc1nnc(SCc2ccccc2)s1)N/N=C/C=C\c1ccco1,–,"inconclusive: 28.2 µM [inhibitor, full curve, poor fit]"
COc1ccc(S(=O)(=O)Nc2c(O)ccc3ccccc23)cc1OC,–,"inconclusive: 39.8 µM [inhibitor, partial curve, poor fit]"
COc1cccc(NS(=O)(=O)c2ccc3[nH]cc(C(=O)N(C)Cc4ccco4)c(=O)c3c2)c1,–,inactive
O=[N+]([O-])/C=C\c1ccc(N2CCOCC2)cc1,–,"inconclusive: 89.1 µM [inhibitor, partial curve, poor fit]"
COC(=O)C1=C(C)NC2=C(C(=O)c3ccccc32)C1c1ccc(-c2ccc(C(=O)O)cc2)o1 (configuration not stated),–,"inconclusive: 39.8 µM [inhibitor, full curve]"
O=C1C=C(c2cccc(Br)c2)C[C@@H](c2ccc3c(c2)OCO3)C1,–,"inconclusive: 89.1 µM [inhibitor, partial curve, poor fit]"
CCCC[C@@H]1CCCO[C@@](C(=O)NCc2ccc(S(C)(=O)=O)cc2)(C(F)(F)F)C1,inactive: -25%,–
Cc1ccc(C2=NN(C(=O)CCC(=O)O)C(c3cn(-c4ccccc4)nc3-c3ccc(C)cc3)C2)cc1 (configuration not stated),inactive: -32.1%,–
S=c1[nH]nc(-c2cc(-c3ccccc3)n[nH]2)n1/N=C/c1cccc(Cl)c1,–,"inconclusive: 79.4 µM [inhibitor, partial curve]"
CCOc1c2ccc(C(=O)NCc3cc(C(F)(F)F)cc(C(F)(F)F)c3)cc2nn1CCOC,–,"inconclusive: 79.4 µM [inhibitor, partial curve, poor fit]"
